Here are results for 44 molecules from publication PMC4336329 (PLoS ONE, 2015).

About 2,200 (0.71%) of roughly 310,000 compounds showed an effect of 50% or more. Effects have a minus sign here. The list shows a part of the results.

This experiment deals with human ether-à-go-go-related gene (hERG) potassium channel (human, UniProt Q12809). Put plainly: primary screen, population patch clamp on CHO cells stably expressing hERG.
Sequence of human ether-à-go-go-related gene (hERG) potassium channel (Q12809 whole entry, looked up): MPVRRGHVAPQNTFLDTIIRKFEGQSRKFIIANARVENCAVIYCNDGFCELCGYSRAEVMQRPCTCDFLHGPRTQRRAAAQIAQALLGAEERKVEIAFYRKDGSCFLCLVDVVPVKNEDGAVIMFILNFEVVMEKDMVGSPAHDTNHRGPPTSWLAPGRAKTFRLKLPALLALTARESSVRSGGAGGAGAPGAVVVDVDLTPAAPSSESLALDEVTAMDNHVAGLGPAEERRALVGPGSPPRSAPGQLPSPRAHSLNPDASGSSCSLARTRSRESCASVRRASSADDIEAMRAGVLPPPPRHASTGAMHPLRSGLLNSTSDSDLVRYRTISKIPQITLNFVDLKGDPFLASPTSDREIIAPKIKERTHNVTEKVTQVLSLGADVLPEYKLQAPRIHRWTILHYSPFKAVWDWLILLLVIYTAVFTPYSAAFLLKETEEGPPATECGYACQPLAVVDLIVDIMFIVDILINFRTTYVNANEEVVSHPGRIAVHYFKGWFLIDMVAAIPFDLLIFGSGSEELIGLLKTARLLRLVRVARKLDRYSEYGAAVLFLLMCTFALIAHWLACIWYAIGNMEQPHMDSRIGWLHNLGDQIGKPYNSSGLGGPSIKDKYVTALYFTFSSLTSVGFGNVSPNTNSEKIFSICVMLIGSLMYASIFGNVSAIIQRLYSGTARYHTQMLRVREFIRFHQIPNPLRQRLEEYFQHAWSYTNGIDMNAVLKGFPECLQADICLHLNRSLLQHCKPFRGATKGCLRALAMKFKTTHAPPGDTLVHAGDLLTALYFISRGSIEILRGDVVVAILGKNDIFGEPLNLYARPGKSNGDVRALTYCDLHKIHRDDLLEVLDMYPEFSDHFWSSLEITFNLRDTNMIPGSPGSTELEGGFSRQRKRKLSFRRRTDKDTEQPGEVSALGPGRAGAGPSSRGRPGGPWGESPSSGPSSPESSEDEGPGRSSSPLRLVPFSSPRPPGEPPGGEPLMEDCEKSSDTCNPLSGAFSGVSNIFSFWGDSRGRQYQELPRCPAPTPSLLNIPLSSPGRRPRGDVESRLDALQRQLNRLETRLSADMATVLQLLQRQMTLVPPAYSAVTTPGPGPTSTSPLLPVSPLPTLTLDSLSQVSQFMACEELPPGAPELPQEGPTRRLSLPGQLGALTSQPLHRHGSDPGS
For `COCc1ccc(C(=O)NC(C)c2cnn(-c3ccccc3C)c2C)o1` (centres unmarked), the “hERG current change (%, negative = inhibition) at 1uM” value turned out to be 6.94%.
The figure for `Cc1ccc(S(=O)(=O)N(Cc2cc3cc4c(cc3[nH]c2=O)OCCO4)CC2CCCO2)cc1` (centres unmarked) is 13.2%; for `Cc1cc(C)cc(N(C(=O)c2csnn2)C(C(=O)NC(C)(C)C)c2cccs2)c1` (centres unmarked) it is 6.52%; for `Cc1cc(=O)[nH]c(N=N/C(=N/Nc2ccc(O)cc2)c2ccccc2)n1` it is 4.07%.
The value for `O=C(NCCOc1ccccc1)c1ncn[nH]1` was 12%; that for `COc1ccc(S(=O)(=O)N2CCC(Nc3ccccc3Cl)CC2)cc1` was 28.1%.
The figure for `COC(=O)c1ccccc1NC(=O)NC1CCN(Cc2ccccc2)CC1` is -0.747%; for `CC(Oc1ccccc1)C(=O)OCC(=O)NC(=O)NCc1ccco1` (centres unmarked) it is 12.6%; for `O=c1[nH]c(CSc2nc3ccccc3s2)nc2cc(Cl)ccc12` it is 9.81%.
`C=CCOC(=O)Nc1ccc(Cl)cc1NC(=O)OCC=C`: the “hERG current change (%, negative = inhibition) at 1uM” value stood at 0.411%.
As to `O=C(Nc1cccc(-c2nnn(CC(=O)N3CCc4ccccc4C3)n2)c1)C1CCC1`, the “hERG current change (%, negative = inhibition) at 1uM” value was determined as 17.8%.
The value for `Cc1cc(N2CCN(Cc3cn(C)nc3-c3ccccc3F)CC2)cc(C)n1` was -3.99%.
The value for `CC1C(C#N)=C(N)OC2=C1C(=O)CCC2` (centres unmarked) was 1.67%.
Consider `CCC(=O)Oc1ccc2c(=O)c(-c3ccc4ccccc4n3)c(CC)oc2c1C`, for which the “hERG current change (%, negative = inhibition) at 1uM” value was 19.8%.
The figure for `COc1ccccc1OCCn1cc(/C=N/NC(=O)c2ccncc2)c2ccccc21` is 16.5%; for `Cc1ccnn1CCC(=O)O` it is 12.4%.
On to `CCSc1nc2ccc(N3C(=O)C4C5C=CC(C5)C4C3=O)cc2s1` (centres unmarked), for which the “hERG current change (%, negative = inhibition) at 1uM” value is on record as 8.84%.
The figure for `O=C(NCCN1C(=O)S/C(=C\c2ccccc2)C1=O)C1CCN(S(=O)(=O)c2cccs2)CC1` is -6.33%.
With `CC(Oc1ccc(Br)cc1)C(=O)NNC(=O)CCN1CCN(c2ccccc2)CC1` (centres unmarked), the “hERG current change (%, negative = inhibition) at 1uM” value is -1.74%.
The value for `O=C(OCc1ccccc1)C1=[N+]([O-])OC(C(=O)OCc2ccccc2)C1c1c[nH]c2ccccc12` (centres unmarked) was 8.17%.
Take `CC(=O)Nc1ccc(NC(=O)COC(=O)c2cc([N+](=O)[O-])ccc2N2CCOCC2)cc1`: the “hERG current change (%, negative = inhibition) at 1uM” value is reported as -3.31%.
The value for `Cc1ccc(NC(=O)c2ccc(C(C)(C)C)cc2)cc1-n1cnnn1` was 8.91%.
In the case of `O=C(Nc1ccccn1)c1cc2ccccc2o1`, the “hERG current change (%, negative = inhibition) at 1uM” value is on record as 9.79%.
For `CCN(CC)c1ccc(Nc2nc(Cl)ncc2Br)cc1`, the “hERG current change (%, negative = inhibition) at 1uM” value amounted to 7.87%.
In the case of `CCC(=O)Nc1ccc2nc(C)n(CC(=O)Nc3ccccc3)c(=O)c2c1`, the “hERG current change (%, negative = inhibition) at 1uM” value worked out at 10.1%.
With `O=c1[nH]cnc2nc3n(c12)CCCCC3`, the “hERG current change (%, negative = inhibition) at 1uM” value amounted to 6.06%.
Take `COC(=O)c1oc2ccccc2c1-n1cccc1`: the “hERG current change (%, negative = inhibition) at 1uM” value came out at 0.781%.
`Cc1ccc(CNC(=O)c2sccc2-n2cccc2)cc1`: the “hERG current change (%, negative = inhibition) at 1uM” value was 3.94%.
In the case of `Cc1noc(C)c1S(=O)(=O)N1CCCC(C(=O)Nc2nccs2)C1` (centres unmarked), the “hERG current change (%, negative = inhibition) at 1uM” value is 8.45%.
On to `Cc1ccc(-n2nnnc2-c2ccccc2Br)cc1`, for which the “hERG current change (%, negative = inhibition) at 1uM” value worked out at 1.12%.
The value for `CC1CCCCC1NC(=O)COC(=O)c1ccc2c(c1Cl)C(=O)c1ccccc1C2=O` (centres unmarked) was 6.56%; that for `CN(C)c1nc(SCCOC(=O)Nc2ccccc2)nc(N(C)C)n1` was 9.47%; that for `Cc1cc(-c2nc3ccccc3c(=O)o2)ccc1[N+](=O)[O-]` was 13.5%.
The value for `Cc1ccccc1Nc1nc(N)nc(CSCC(=O)Nc2cccc(Br)c2)n1` was 11.8%; that for `O=C(CCc1nnc2ccc(N3CCC4(CC3)OCCO4)nn12)NCc1ccc(F)cc1` was 3.87%; that for `Cc1csc(NC(=O)CSc2nc(C(C)C)nc3c2c(=O)n(C)c(=O)n3C)n1` was 5.02%.
With `O=C(COc1cccnc1[N+](=O)[O-])NCCc1ccc(F)cc1`, the “hERG current change (%, negative = inhibition) at 1uM” value was 4.74%.
With `CCOc1ccc2c(c1)OC1(CCC(C)C1)CC2=O` (centres unmarked), the “hERG current change (%, negative = inhibition) at 1uM” value was determined as 10.6%.
The value for `CCOC(=O)c1cc2c(ccn2C)n1Cc1ccc(C#N)cc1` was 4.71%; that for `COC(=O)CN(c1ccc(OC)cc1OC)S(=O)(=O)c1ccccc1[N+](=O)[O-]` was 4.14%; that for `CC(=O)c1c(N2CCN(c3ccccn3)CC2)nc(=S)n(-c2ccccc2)c1C` was -5.96%.
Consider `O=C(Cn1cnc2sc3c(c2c1=O)CCCC3)NCC(=O)Nc1ccccc1F`, for which the “hERG current change (%, negative = inhibition) at 1uM” value came to 13.1%.
In the case of `COC(=O)c1sc(-c2ccccc2)cc1NC(=O)c1cc(OC)cc(OC)c1`, the “hERG current change (%, negative = inhibition) at 1uM” value turned out to be 18.5%.
Consider `Cc1ccc(S(=O)(=O)N2CCCCC2CCNC(=O)C(=O)NC2CCCC2)cc1` (centres unmarked), for which the “hERG current change (%, negative = inhibition) at 1uM” value was -2.42%.
